For 27 variants, nonsense suppression results are on record in the RNAGym collection of RNA variant scans (doi:10.1101/gad.245936.114).

Variants at the background level are over-represented here. Where only a bound is given, the exact number is not on record here.

To fix the notation:
B1: tRNA (parent)
chain: CUCUCGGUAGCCAAGUUGGUUUAAGGCGCAAGACUUUAAUUUAUCACUACGAAAUCUUGAGAUCGGGCGUUCGACUCGCCCCCGGGAGAUUUUUUCCUCGAGCAA

The variants in this data set derive from B1. The data set is described as follows: nonsense suppression (GFP-seq) (ratio to wild type); higher = more function; SUP4oc tRNA, yeast GFP reporter sort-seq. In short, it runs like this: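 Nonsense suppression (GFPSEQ) is the median GFP/RFP ratio of each sorting bin, weighted by the variant's estimated share of cells in that bin and expressed relative to the unmutated parent tRNA. Yeast strains carried genome-integrated variants of an ochre-suppressor tRNA from a library with ~3% random mutations, plus a galactose-driven GFP ochre reporter and RFP, and were grown in raffinose/galactose medium containing 80 mg/L adenine. Cells were sorted into GFP/RFP bins, each bin was Illumina-sequenced (phred ≥30), and variants were kept only with ≥100 reads and ≥30 cells.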
Regarding CUCUCGGUAGCCAAGUUGGUUUAAGGCAGAUGACUUUAAUUUAUCACUACGAAAUCUUGAGAUCGGGCGUUCGACUCGCCCCCGGGAGAUUUUUUCCUCGAGCAA [G28A C29G A31U], the nonsense suppression was at most 0.026.
Take CUCUCGGCAGCCAAGUUGGUUUACGGCGCAAGCCUUUAAUUUAUCACUACGAAAUCUUGAGAUCGGGCGUGCGACUCGCCCCCGGGAGAUUUUUUCCUCGAGCAA [U8C A24C A33C U71G]: the nonsense suppression is at most 0.026.
Next, CUCUCGGUAGCCAAGUUGGUUUAGGGCGCAAGACUUUAAUUUAUCACUACGAAAUCUUGAGAUCGGGCGUUCGACUCGCCCCCGGCAGAUUUUUUCCUCGAGCAA [A24G G86C]: at most 0.026; CUCUAGGUAGCCAAGUUGGUUUAAGGCGCAAGACGUUAAUUUAUCACUACGAAAUCAUGAGAUCGGGCGUUCGACUCGCCCCCGGGAGAUUUUUUCCUCGAGCAA [C5A U35G U57A]: at most 0.026.
Under CUCUCGGUAGCCAUGUUGGUUUAAGUCGCAAGACUUUAAUUUAUCACUACGAAAUCUUGAGAUCGGGCGUUCGACUCGCCCCCGGGAGAUUUUUUCCUCGAGCAA [A14U G26U] stands at most 0.026; under CUCUCGGUAGCCAUGUUGGCUUAAGGCGCGAGACUUUAAUUUAUCACUACGAAAUCUUGGGAUCGGGCCGUCGACUCGCCCCCGGGAGAUUUUUUCCUCGAGCAA [A14U U20C A30G A60G G69C U70G], at most 0.026; under CUCUCGGUAGCCAAGUUGGUUUAAUGCGCAAGACUUUAAUUUAUCACUACGAAAUCUUGGAAUCGGGCGUUCGACUCGCCCCCGGGAGAUUUUUUCCUCGAGCAA [G25U A60G G61A], at most 0.026.
Under CUCUCGGGAGUCAAGUUGGUUUAAGGCGCAAGACUUUAAUUUAUCACUACGAAAUCUUGAGAUCGGGCGUUCGGCUCGCCCCCAGGAGAUUUUUUCCUCGAGCAA [U8G C11U A74G G84A] stands at most 0.026; under CUCUCGGUAGCCAAGUUGGUUUACGGCGCUAGACUUUAAUUUAUCACUACGAAAUCUUGAGAUCGGGCGUUCGACUCGCCCCCGGGAGAUUUUUUCCUCGAGCAA [A24C A30U], 0.11; under CUCUCGGUAGCCCAGUUGGUUUAAGGCGCAAGACUUUAAUUUAUCACUACGAAAUCUUUAGAUCGGGCGUUCGACUCGCCCCCGGGAGAUUUUUUCCUCGAGCAA [A13C G59U], at most 0.026.
In the case of CGCUCGGUAGCCAAGUAGGUUUAAUGCGCAAGACUUUAAUUUAUCACUACGAAAUCUUGAGAUCAGGCGUUCGACUCGCCCCCGGGAGAUUUUUUCCUCGAGCAA [U2G U17A G25U G65A], the nonsense suppression is at most 0.026.
Under CUCUCGGUAGCCACGUUGGUUUAAGGCGGAAUACUUUAAUUUAUCACUACGAAAUCUUGAGAUCGGGCGUUCGACUCGCCCCCAGGAGAUUUUUUCCUCGAGCAA [A14C C29G G32U G84A] stands at most 0.026; under CACUCGGUAGCCAAGUUGGGUUAAGGCGCAAGACUUUAAUUUAUCACUACGAAAUCUUGAGAUCGGGCGUUCGACUCGCCCCCGGGAGAUUUUUUCCUCGAGCAA [U2A U20G], at most 0.026; under CUCUCGGUAGCCAAGUUGGUUUAAGGCGCAAGGCUUUAAUUUAUCACUACGAAAUCUUGAGAUCGGGCGUUCGACUCGCCCCCGGGAAAUUUUUUCCUCGAGCAA [A33G G88A], at most 0.026.
Next, CUCUCGGUAGCCUAUUUGGUUUAAGGCGCAAGACUUUAAUUUAUCACUACGAAUUCUUGAGAUCGGGUGUUCGACUCGCCCCCGGGAGAUUUUUUCCUCGAGCAA [A13U G15U A54U C68U]: at most 0.026; CUCUCGGUAGCCAUGUUGGUUUAAGGCGCAAGACUUUAAUUUAUCACUACGAAAUCUUAAGAUCGGGCGUUCGACUCGCCCCCGGGAGAUUUUUUCCUCGAGCAA [A14U G59A]: at most 0.026; CUCUCGGUAGCCAAGUUGGUUUAUGGCGCAAGACUUUAAUUUAUCACUACGAAAUCUUGAGAUCGGGCGUUCGACUCGCGCCCGGGAGAUUUUUUCCUCGAGCAA [A24U C80G]: at most 0.026.
With CUCUCGGUAGCCAAGUUGGUUUAAGGCGCAAGACUUUAAUUUAUCACUACGAAAUCUUGAUAUCGGGUGUUCGACUCGCCGCCGGGAGAUUUUUUCCUCGAGCAA [G61U C68U C81G], the nonsense suppression is at most 0.026.
Consider CUCUUGGGAGCAAAGUUGGUUUAGGGUGCAAGACUUUAAUUUAUCACUACGAAAUCUUGAGAUCGAGCGUUCGACUCGCCCCCGGGAGAUUUUUUCCUCGAGCAA [C5U U8G C12A A24G C27U G66A], for which the nonsense suppression was at most 0.026.
Regarding CUCUCGGUAGCCAAGUUGGUUUAAGGCGCAAUACUUUAAUUUAUCACUACGAAAUCUUGAGAUCGGGCGUUCGACUCGCCUCCGGGAGAUUUUUUCCUCGAGCAA [G32U C81U], the nonsense suppression is at most 0.026.
Under CACUCGGUAGCCAAGUUGGUGUAAGGCGCAAGACUUUAAUUUAUCACUACGAAAUCUUGAGAUCUGGCGUUCGACUCGCCCCCGGGAGAUUUUUUCCUCGAGCAA [U2A U21G G65U] stands at most 0.026.
As for CUCUCGGUAGCCAUGUGCGUUUGAGGCGCAGGACUUUAAUUUAUCACUACGAAAUCUUGAGAUCGGGCGUUCGACUCGCCCCCGGGAGAUUUUUUCCUCGAGCAA [A14U U17G G18C A23G A31G], the nonsense suppression was at most 0.026.
Under CUCUCGGUAGCCAAGUUCGUUCAAGGCGCAAGACUUUAAUUUAUCACUACGAAAUCUUGAGAUCGGGCGUUCGACUCGCCCCCGGGAGAUUUUUUCCUCGAGCAA [G18C U22C] stands at most 0.026; under CUCUCGGUAGCCAAGCUGGUUUAAGGCGCAAGACAUUAAUUUAUCACUACGAAAUCUUGAGAUCGGGCGUUCGACUCGCCCCCGGGAGAUUUUUUCCUCGAGCAA [U16C U35A], at most 0.026.
In the case of CUCUCGGUAGCCAAGUUGGUCUAAGGCGCAAGACUUUAAUUUAUCACUACGAAAUCUUUAGAUCGGGCGUUCGACUCGCCCCCGGGAGAUUUUUUCCUCGAGCAA [U21C G59U], the nonsense suppression was at most 0.026.
Under CUCUCGGUAGCCAAGUUGGUUUAAGGCGCAAGACUUUAAUUUAUCACUACGAAAUAUUGAGAUCGGGCGUUCGACUCGCCCCCGGGAGUUUUUUUCCUCGAGCAA [C56A A89U] stands at most 0.026.
In the case of AUCUCGGUAGCCAAGUUGGUUUCAGGCGCAAGACUUUAAUUUAUCACUACGAAAUCUUGAGAUCGGGCGUUCGACUAGCCCCCGGGAGAUUUUUUCCUCGAGCAA [C1A A23C C77A], the nonsense suppression is at most 0.026.
